Consider 86 compounds from PMC4336329 (PLoS ONE, 2015).

Out of some 310,000 compounds screened, about 14,000 (4.5%) showed an effect of 50% or more. Effects have a minus sign here. This is one part of the list.
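Also: peak tail current of the secondary pulse compared with the same well before compound.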

This experiment deals with human ether-à-go-go-related gene (hERG) potassium channel (human, UniProt Q12809). The experiment in a line: primary screen, population patch clamp on CHO cells stably expressing hERG.
Chain of human ether-à-go-go-related gene (hERG) potassium channel (Q12809 whole entry, looked up): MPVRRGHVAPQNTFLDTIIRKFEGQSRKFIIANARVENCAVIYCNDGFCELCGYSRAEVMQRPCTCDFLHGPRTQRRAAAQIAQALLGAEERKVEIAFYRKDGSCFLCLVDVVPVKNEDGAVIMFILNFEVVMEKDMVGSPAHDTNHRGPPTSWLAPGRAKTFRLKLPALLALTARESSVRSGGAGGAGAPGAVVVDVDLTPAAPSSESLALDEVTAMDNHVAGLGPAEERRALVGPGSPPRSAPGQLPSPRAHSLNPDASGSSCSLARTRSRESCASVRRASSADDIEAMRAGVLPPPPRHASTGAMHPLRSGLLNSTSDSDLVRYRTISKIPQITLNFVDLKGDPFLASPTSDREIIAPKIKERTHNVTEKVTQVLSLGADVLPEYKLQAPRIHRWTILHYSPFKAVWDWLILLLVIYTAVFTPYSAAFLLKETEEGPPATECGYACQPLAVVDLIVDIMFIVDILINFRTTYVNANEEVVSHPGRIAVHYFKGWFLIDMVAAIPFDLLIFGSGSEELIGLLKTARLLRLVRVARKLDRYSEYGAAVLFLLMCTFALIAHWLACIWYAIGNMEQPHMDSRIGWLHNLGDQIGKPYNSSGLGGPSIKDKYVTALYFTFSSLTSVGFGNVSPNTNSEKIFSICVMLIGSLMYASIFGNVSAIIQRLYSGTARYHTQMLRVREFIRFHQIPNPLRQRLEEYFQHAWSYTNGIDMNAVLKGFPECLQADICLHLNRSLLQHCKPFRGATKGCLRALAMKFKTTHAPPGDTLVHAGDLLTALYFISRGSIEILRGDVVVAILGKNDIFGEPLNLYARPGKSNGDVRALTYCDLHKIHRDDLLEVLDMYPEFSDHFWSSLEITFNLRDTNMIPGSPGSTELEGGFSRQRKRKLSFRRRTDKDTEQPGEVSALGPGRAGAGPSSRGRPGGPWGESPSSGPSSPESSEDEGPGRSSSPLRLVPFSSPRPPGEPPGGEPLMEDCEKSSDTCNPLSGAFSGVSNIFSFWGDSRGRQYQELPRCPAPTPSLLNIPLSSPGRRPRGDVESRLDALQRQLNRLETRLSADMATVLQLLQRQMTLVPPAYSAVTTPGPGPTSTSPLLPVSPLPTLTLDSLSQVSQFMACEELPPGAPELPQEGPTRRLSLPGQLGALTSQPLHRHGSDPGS
Take `O=C(CCN1C(=O)C2C3CCC(C3)C2C1=O)OCC(=O)c1ccccc1` (centres unmarked): the “hERG current change (%, negative = inhibition) at 10uM” value amounted to 9.98%.
For `Cc1cc(O)ccc1NC1=CC(=O)CC(C)(C)C1` the value was 1.89%; for `COc1ccc(C2/C(=C(/O)c3ccc(C)cc3)C(=O)C(=O)N2C)c(OC)c1` (centres unmarked), 21.2%; for `CCOC(=O)c1nnn(-c2nonc2-n2cccc2)c1C`, -3.31%.
In the case of `NS(=O)(=O)c1ccc(Sc2ccccn2)c([N+](=O)[O-])c1`, the “hERG current change (%, negative = inhibition) at 10uM” value stood at 9.58%.
Next, `COc1cccc(C(=O)N2CCCc3ccccc32)c1`: -13.8%; `O=C1CC(NCc2ccco2)C(=O)N1CCc1ccccc1` (centres unmarked): 5.23%.
Next, `Cc1cc(=O)oc2cc(O[C@@H]3O[C@H](CO)[C@H](O)[C@H](O)[C@H]3O)ccc12`: 12.2%.
Regarding `CCn1c(C(=O)O)c(CC(=O)Nc2ccccc2OC)c2ccccc21`, the “hERG current change (%, negative = inhibition) at 10uM” value stood at 2.15%.
Next, `O=C(NCc1ccncc1)c1ccc(Cl)c(S(=O)(=O)N2CCOCC2)c1`: 12.4%; `C/C(N)=C(/C#N)C(=O)COC(=O)c1ccc(NC(N)=O)cc1`: 14.6%.
Next, `O=C(NCc1nc2ccccc2[nH]1)C1=C[C@H](C2CCCCC2)C[C@H](OCCCCO)O1`: -22.9%; `O=C(CCN1CCOCC1)N/N=C/c1cc([N+](=O)[O-])ccc1OC(F)F`: 7.85%.
For `CCOc1ccc(N2C(=O)Cc3ccccc3C2=O)cc1` the value was 20.8%; for `COc1ccc(-n2c(C)cc(/C=C3\SC(=S)N(Cc4ccco4)C3=O)c2C)cc1`, 14.2%; for `COCCn1c(C)cc(C(=O)COC(=O)c2ccc(Cl)c(S(N)(=O)=O)c2)c1C`, -8.74%.
As for `COc1ccc(CNC(=O)CC(C)c2ccccc2)cc1` (centres unmarked), the “hERG current change (%, negative = inhibition) at 10uM” value is given as 9.14%.
For `COc1cccc(CNCc2ccc(C(=O)O)cc2)c1OC.Cl` the value was 12.9%; for `Cc1ccc(C(=O)N2CCC3(CC2)NCCc2[nH]cnc23)cc1`, -53.9%; for `Cc1cc(N/N=C/c2ccc(O)cc2O)nc(-c2ccccc2O)n1`, -1.78%.
For `O=C(NCc1ccc2c(c1)OCO2)c1ccncc1` the value was -12.6%; for `O=C(NC1CCCCC1)c1cc(-c2cccc(Cl)c2)on1`, 11.7%.
Next, `CN(C)CCN1C(=O)C(=O)/C(=C(/O)c2ccc(F)cc2)C1c1ccccc1` (centres unmarked): 10.8%; `Cc1ccc(NC(=O)[C@H](NC(=O)[C@@H]2Cc3ccccc3CN2)c2ccccc2)cc1`: -64.1%; `CCC(=O)Nc1ccc(NC(=O)CSc2nnc(-c3ccc(O)cc3)n2CC2CCCO2)cc1` (centres unmarked): 6.42%.
As to `CC(=O)c1c(Nc2cccc(F)c2)oc(C)cc1=O`, the “hERG current change (%, negative = inhibition) at 10uM” value was 12.6%.
Next, `CC1Oc2ccccc2N(CC(=O)NCc2ccccc2)C1=O` (centres unmarked): 6.53%.
For `COc1ccc(C2NC(=O)N(C)C(C)=C2[N+](=O)[O-])cc1` (centres unmarked) the value was 3.3%; for `O=C(CCCC(=O)Nc1cccc(Br)c1)N/N=C/c1cc([N+](=O)[O-])ccc1O`, -11.5%.
Next, `CCOc1cc(C(=S)N2CCCC2)ccc1OC(=O)Cc1ccc(F)cc1`: 7.36%.
As for `CCn1nnc(NC(=O)c2cccnc2Cl)n1`, the “hERG current change (%, negative = inhibition) at 10uM” value worked out at 12%.
Regarding `Cc1ccccc1/C=N/NC(=O)c1ccc(-n2cnnn2)cc1`, the “hERG current change (%, negative = inhibition) at 10uM” value was determined as 12.7%.
Next, `Cc1cccc(NC(=O)C2c3ccccc3C(=O)N3CCc4ccccc4C23)n1` (centres unmarked): -37.3%.
Next, `CCCS(=O)(=O)N1CCN(CC2CC=CCC2)CC1.O=C(O)C(=O)O` (centres unmarked): -6.27%.
Next, `CC1=NN(Cc2ccccc2)C(=O)C1`: -0.313%; `Cn1c(-c2ccccc2)cc2c3no[n+]([O-])c3ccc21`: 12.9%.
Take `Cc1ccn2c(C(=O)N/N=C\c3ccc4c(c3)OCO4)c(C)nc2c1`: the “hERG current change (%, negative = inhibition) at 10uM” value was -17.9%.
For `CCOc1ccc2[nH]c(=O)c(C(c3nnnn3Cc3ccco3)N3CCC(C)CC3)cc2c1` (centres unmarked) the value was -11.2%.
Consider `O=C(CSc1nc2cccnc2n1Cc1ccccc1)NCc1ccco1`, for which the “hERG current change (%, negative = inhibition) at 10uM” value was -37.4%.
As to `CC(C)NC(=O)CN(C(=O)CCC(=O)Nc1nccs1)c1ccc(C(C)C)cc1`, the “hERG current change (%, negative = inhibition) at 10uM” value is reported as 5.56%.
Next, `COc1cc(OC)c(NC(=O)CCCNC(=O)Cn2cnc3sc(C)c(C)c3c2=O)cc1Cl`: 9.77%.
As for `N#CC[C@H](Cc1ccccc1)N1CC[C@@H](NC(=O)OCc2ccccc2)CCC1=O`, the “hERG current change (%, negative = inhibition) at 10uM” value is listed as -45.1%.
As to `Cc1cc(C)c(S(C)(=O)=O)c(Oc2ccc(F)cc2)n1`, the “hERG current change (%, negative = inhibition) at 10uM” value is recorded as 8.08%.
With `COc1ccc(-n2c(O)c(C(C)=Nc3ccc4c(c3)CCC4)c(=O)[nH]c2=O)cc1`, the “hERG current change (%, negative = inhibition) at 10uM” value is -8.87%.
Take `CN(CC(=O)N1CC(=O)N(CCc2ccccc2)C(=O)C1)S(=O)(=O)c1cccc2nsnc12`: the “hERG current change (%, negative = inhibition) at 10uM” value is listed as -35.4%.
Next, `Cc1ccc(-n2ncc(C(=O)N3CCc4ccccc4C3)c2NC(=O)c2ccco2)cc1C`: -0.542%; `NC(=O)C1CCN(CC(=O)Nc2cccnc2Cl)CC1`: 19.4%.
Next, `COc1ccc(OC)c(NC(=O)c2cc(-c3cc(C)cc(C)c3O)n[nH]2)c1`: 12.3%.
Next, `O=C1CC(N2CCN(c3ccccc3F)CC2)C(=O)N1c1ccc(F)cc1` (centres unmarked): -3.16%; `CCCCOC(=O)C1[C@H]2C(=O)N(c3ccccc3CC)C[C@]23C=C[C@H]1O3` (some centres unmarked): 5.13%; `c1ccc(C2c3c(ccc4ccccc34)Oc3ncn4nc(-c5ccco5)nc4c32)cc1` (centres unmarked): -4.31%.
Take `COc1cccc(NC(=O)c2ocnc2C)c1`: the “hERG current change (%, negative = inhibition) at 10uM” value was determined as 5.26%.
For `O=C(CN1C(=O)NC2(CCCCC2)C1=O)N1CCN(S(=O)(=O)/C=C/c2ccccc2)CC1` the value was -4.49%.
For `CCOc1ccc(Nc2nc(NCCN3CCOCC3)nc(OC)n2)cc1` the value was -63.8%.
Next, `O=C(c1cccc(-n2cccc2)c1)N1CCN(S(=O)(=O)c2c(F)cccc2F)CC1`: -21.6%; `CCOC(=O)CN1C(=O)C(O)(C2CCc3ccccc3C2=O)c2ccccc21` (centres unmarked): -3.02%.
Take `Cc1ccc(NS(=O)(=O)c2cc3c4c(cccc4c2)C(=O)NC3=O)cc1`: the “hERG current change (%, negative = inhibition) at 10uM” value came out at 14.7%.
Next, `COCc1[nH]nc2c1C1(CCSCC1)C(C#N)=C(N)O2`: 5.33%; `CCOc1cccc(C(=O)NC(=S)Nc2ccccc2)c1`: 12.6%.
Next, `CCOc1ccc(C(CC(=O)O)NC(=O)Cc2ccccc2)cc1OC` (centres unmarked): 18.7%.
Next, `Cc1ccc(CN2C(=O)CCC2C(=O)NCc2cccnc2)cc1` (centres unmarked): 5.44%; `COc1cccc(Oc2ccc(C(F)(F)F)cc2NC(=O)C2=COCCO2)c1`: -1.2%; `COc1ccc(-c2noc(CCCOc3ccccc3)n2)cc1OC`: -9.71%.
Consider `CCCc1cc2nnc(SCC(=O)N(C)C3CCCCC3)n2c(N)n1`, for which the “hERG current change (%, negative = inhibition) at 10uM” value is reported as -21.9%.
For `Cc1cc(=O)n2nc(N3CCC(C(=O)N4CCN(c5ccccc5)CC4)CC3)sc2n1` the value was -11.9%; for `O=C(O)c1cccc(N2C(=O)c3cc4cccc(Br)c4cc3C2=O)c1`, 18.4%.
For `CCN(CC)S(=O)(=O)c1ccc(Cl)c(C(=O)Nc2cc(C)nn2-c2ccccc2)c1` the value was -26.3%; for `Clc1ccccc1CSc1nnc(Cn2cnc3ccccc32)n1-c1ccccc1`, -42.7%.
For `COC(=O)NCC(c1cccnc1)N1CCN(c2ccccc2OC)CC1` (centres unmarked) the value was 6.42%; for `CC(=O)Nc1cc(C(=O)OCC(=O)c2ccc(C)cc2)ccc1C`, 3.03%.
In the case of `Cc1nn(C)cc1C(C)NC(=O)c1cc(COc2c(F)cccc2F)on1` (centres unmarked), the “hERG current change (%, negative = inhibition) at 10uM” value turned out to be 13.2%.
For `CCCOc1ccc(-c2nc3c(c(=O)[nH]c(=O)n3Cc3ccccc3)n2CCO)cc1OCC` the value was -5.86%; for `Cc1nnc(SCCC#N)n(CCC#N)c1=O`, -1.84%; for `COc1ccc(CNC(=O)C(c2ccco2)N(C(=O)Cc2cccs2)c2cccnc2)cc1` (centres unmarked), -28.9%.
Next, `CCn1ncc(/C=C/C(=O)C2CC2)c1C`: 31.7%; `O=C(Nc1ccc2ncccc2c1)c1cccc(Br)c1`: 9.51%; `COc1cccc(NC(=O)Cn2c3ccccc3c3nc4n(c(=O)c32)CCCS4)c1`: 5.3%.
For `NCCN1CCN(S(=O)(=O)c2ccc([N+](=O)[O-])cc2)C=C1c1ccc(Cl)cc1` the value was -42.6%; for `C/C(=N\Nc1nc2ccccc2[nH]1)c1ccc(N2CCOCC2)cc1`, -15.2%.
As for `NC(=O)COc1ccc(/C=N\NC(=O)CC(=O)NCCc2ccccc2)cc1`, the “hERG current change (%, negative = inhibition) at 10uM” value stood at 17.9%.
As to `O=c1c2ccccc2nnn1CSc1nc2ccccc2[nH]1`, the “hERG current change (%, negative = inhibition) at 10uM” value is recorded as -19.4%.
Take `O=C(N/C(=C\c1ccco1)C(=O)N1CCOCC1)c1ccccc1Cl`: the “hERG current change (%, negative = inhibition) at 10uM” value came to 12.6%.
Next, `Cc1ccc(Nc2nnc(SCC(=O)Nc3cccc(S(=O)(=O)NC4=NCCCCC4)c3)s2)cc1`: 3.63%; `CCOC(=O)c1c(C)[nH]c(=S)c(C#N)c1-c1ccccc1`: 21.1%; `Cc1ccsc1/C=N/n1c(=S)[nH]nc(C)c1=O`: 6.22%.
As to `CCCCc1ccc(S(=O)(=O)Nc2ccc(C)c(NS(C)(=O)=O)c2)cc1`, the “hERG current change (%, negative = inhibition) at 10uM” value stood at 6.39%.
